Data reported in paper PMC7666182.
These are yes or no findings as the source states them, for the method shown. Binding seen in cells or lysates may run through a third protein. Some results given as binding are weak or reduced against the parent protein; the word gives no strength. For part of these data: Where a sequence is shown, tags or fusion partners need not be part of it.

By UniProt entry, the sequences of proteins in these tests, tags left out. Where a name states a change or a piece, a line headed by the entry shows the natural chain unless it says otherwise. Residues count along the entry.
UniProt P35222: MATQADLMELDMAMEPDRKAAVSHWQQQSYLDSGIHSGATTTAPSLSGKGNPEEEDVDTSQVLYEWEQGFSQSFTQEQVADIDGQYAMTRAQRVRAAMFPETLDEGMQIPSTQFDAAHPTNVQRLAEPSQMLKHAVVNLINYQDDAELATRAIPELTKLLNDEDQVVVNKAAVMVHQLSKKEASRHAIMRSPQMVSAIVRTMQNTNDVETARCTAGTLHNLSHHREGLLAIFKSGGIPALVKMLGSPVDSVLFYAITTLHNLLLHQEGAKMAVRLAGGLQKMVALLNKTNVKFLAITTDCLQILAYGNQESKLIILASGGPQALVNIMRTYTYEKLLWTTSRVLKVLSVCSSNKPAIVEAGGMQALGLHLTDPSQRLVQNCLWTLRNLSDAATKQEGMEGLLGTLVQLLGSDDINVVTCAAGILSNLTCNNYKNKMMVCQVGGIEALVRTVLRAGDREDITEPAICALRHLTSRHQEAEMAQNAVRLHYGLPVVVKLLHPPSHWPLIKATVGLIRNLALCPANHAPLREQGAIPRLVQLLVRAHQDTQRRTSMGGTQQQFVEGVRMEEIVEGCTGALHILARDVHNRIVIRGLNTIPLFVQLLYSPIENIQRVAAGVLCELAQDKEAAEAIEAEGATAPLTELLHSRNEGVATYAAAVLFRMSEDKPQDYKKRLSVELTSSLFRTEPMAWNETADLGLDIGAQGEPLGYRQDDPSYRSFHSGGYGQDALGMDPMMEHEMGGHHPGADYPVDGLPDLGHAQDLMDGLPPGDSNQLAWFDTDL
GST-β-catenin-ARM: residues 133-695 of P35222
UniProt P49841: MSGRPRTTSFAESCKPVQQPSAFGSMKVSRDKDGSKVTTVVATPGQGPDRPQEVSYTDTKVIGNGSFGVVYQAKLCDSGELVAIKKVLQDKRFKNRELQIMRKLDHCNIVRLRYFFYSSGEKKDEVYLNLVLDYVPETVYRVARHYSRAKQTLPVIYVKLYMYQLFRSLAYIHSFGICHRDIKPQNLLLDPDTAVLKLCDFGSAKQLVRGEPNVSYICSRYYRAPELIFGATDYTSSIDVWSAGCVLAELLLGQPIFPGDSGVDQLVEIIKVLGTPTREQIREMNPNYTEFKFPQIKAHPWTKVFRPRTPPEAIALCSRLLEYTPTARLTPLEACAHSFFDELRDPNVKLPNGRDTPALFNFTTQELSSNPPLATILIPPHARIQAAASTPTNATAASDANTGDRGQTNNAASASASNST

Assays:
[1] = target: T1, Flag-IRF3 (UniProt Q14653); assay: co-IP; anti-FLAG immunoprecipitates of transfected HEK293T cells, immunoblot
T1 sequence: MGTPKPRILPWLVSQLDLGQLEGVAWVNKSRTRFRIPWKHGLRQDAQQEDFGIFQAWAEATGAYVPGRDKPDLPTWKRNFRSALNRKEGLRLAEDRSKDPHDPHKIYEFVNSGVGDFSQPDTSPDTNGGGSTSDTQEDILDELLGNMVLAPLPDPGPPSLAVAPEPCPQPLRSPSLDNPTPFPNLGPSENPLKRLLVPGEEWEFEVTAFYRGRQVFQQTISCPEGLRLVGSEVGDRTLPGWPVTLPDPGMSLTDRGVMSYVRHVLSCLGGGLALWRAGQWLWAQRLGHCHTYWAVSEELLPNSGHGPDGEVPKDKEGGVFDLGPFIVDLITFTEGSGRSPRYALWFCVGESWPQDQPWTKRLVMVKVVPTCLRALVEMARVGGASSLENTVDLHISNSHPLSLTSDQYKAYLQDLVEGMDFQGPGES

[2] = target: T2, IRF3 (endogenous) (human (endogenous in HCT116 and H1299)) (UniProt Q14653); assay: co-IP; anti-IRF3 immunoprecipitates of HCT116 or H1299 cell extracts, immunoblot; cells treated with wnt3a-conditioned medium or with VSV (association decreased after VSV)
T2 sequence: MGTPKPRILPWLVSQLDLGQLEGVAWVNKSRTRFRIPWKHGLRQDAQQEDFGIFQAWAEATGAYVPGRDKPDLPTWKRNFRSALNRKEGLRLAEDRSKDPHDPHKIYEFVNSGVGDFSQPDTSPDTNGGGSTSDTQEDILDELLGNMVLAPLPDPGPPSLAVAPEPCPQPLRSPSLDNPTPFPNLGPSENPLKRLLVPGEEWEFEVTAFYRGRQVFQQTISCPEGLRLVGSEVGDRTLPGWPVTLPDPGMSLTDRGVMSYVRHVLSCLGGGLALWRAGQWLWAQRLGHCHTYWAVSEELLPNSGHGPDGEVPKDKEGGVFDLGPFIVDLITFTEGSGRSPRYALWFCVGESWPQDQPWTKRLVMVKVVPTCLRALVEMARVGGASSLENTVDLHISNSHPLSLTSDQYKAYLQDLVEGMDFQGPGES

[3] = target: GST-β-catenin (UniProt P35222); assay: pull-down; GST pull-down of GST-β-catenin constructs with MBP-IRF3; the paper calls the interaction direct
[4] = target: β-catenin-S33A of the GST pull-down (the active mutant of β-catenin) (UniProt P35222); assay: as above
[5] = target: GST-β-catenin-ARM (UniProt P35222); assay: as above

Row | binding [1] | Molecule | binding [2] | also measured
1 | binds | HA-β-catenin-S33A (from UniProt P35222 1-781) | – | –
2 | no binding | HA-GSK3β (from UniProt P49841 1-420) | – | –

Continued, molecule first:

Row | Molecule | binding [1] | binding [2] | also measured
3 | HA-β-catenin (from UniProt P35222 1-781) | binds | – | –
4 | active (non-phospho)-β-catenin (endogenous) (from UniProt P35222 1-781) | – | binds | –
5 | β-catenin (endogenous, total) (from UniProt P35222 1-781) | – | binds | –
6 | GSK3β (endogenous) (from UniProt P49841 1-420) | – | no binding | –
7 | MBP-IRF3 (protein, UniProt Q14653 1-427) MGTPKPRILPWLVSQLDLGQLEGVAWVNKSRTRFRIPWKHGLRQDAQQEDFGIFQAWAEATGAYVPGRDKPDLPTWKRNFRSALNRKEGLRLAEDRSKDPHDPHKIYEFVNSGVGDFSQPDTSPDTNGGGSTSDTQEDILDELLGNMVLAPLPDPGPPSLAVAPEPCPQPLRSPSLDNPTPFPNLGPSENPLKRLLVPGEEWEFEVTAFYRGRQVFQQTISCPEGLRLVGSEVGDRTLPGWPVTLPDPGMSLTDRGVMSYVRHVLSCLGGGLALWRAGQWLWAQRLGHCHTYWAVSEELLPNSGHGPDGEVPKDKEGGVFDLGPFIVDLITFTEGSGRSPRYALWFCVGESWPQDQPWTKRLVMVKVVPTCLRALVEMARVGGASSLENTVDLHISNSHPLSLTSDQYKAYLQDLVEGMDFQGPGES | – | – | binding [3]: binds; binding [4]: binds; binding [5]: binds
